Over roughly 110,000 compounds, “z-score” has its median near -0.1; the highest 2% begin near 2. Some of the results follow.
Target: Metabotropic glutamate receptor 8 (Rattus norvegicus) (UniProt P70579)
Assay: mGluR8 Gi/Go-coupled signaling modulation – cell-based, rat, thallium flux, HTS, primary screen (AID 488969)
Details: HEK293 rat mGluR8, GIRK (G protein-gated inwardly rectifying potassium channel) thallium flux, FluoZin2; at 10 µM; stronger effect = higher value; submaximal glutamate (EC20) added with thallium

Sequence of UniProt P70579 (P70579 whole entry, looked up): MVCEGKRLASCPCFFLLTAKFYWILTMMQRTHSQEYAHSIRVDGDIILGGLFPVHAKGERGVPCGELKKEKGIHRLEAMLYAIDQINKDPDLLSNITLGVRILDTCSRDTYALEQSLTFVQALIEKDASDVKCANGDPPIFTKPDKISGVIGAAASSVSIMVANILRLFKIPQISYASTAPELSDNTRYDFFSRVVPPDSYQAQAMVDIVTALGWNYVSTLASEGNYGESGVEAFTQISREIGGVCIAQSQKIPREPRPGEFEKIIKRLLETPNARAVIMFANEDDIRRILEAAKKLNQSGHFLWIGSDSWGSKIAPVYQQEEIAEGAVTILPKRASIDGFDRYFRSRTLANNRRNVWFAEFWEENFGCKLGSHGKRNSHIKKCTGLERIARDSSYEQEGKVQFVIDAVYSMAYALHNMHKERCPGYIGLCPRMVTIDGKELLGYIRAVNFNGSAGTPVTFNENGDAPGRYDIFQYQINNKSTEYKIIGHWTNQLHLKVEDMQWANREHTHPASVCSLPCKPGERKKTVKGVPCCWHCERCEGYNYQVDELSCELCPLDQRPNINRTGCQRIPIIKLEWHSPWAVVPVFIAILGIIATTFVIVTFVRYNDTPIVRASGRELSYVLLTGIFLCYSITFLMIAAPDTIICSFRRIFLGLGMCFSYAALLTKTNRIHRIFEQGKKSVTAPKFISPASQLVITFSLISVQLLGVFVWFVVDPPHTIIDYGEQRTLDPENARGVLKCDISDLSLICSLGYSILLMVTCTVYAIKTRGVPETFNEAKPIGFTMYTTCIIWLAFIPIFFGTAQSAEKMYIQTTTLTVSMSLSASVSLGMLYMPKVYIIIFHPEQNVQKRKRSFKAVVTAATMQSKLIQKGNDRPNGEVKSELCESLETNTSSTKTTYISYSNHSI

Row | Structure (SMILES) | z-score
1 | Cc1ccccc1CN1CCc2c(OCC(=O)N3CCCc4ccccc43)cccc2C1=O | -0.196
2 | COc1ccc([N+](=O)[O-])cc1NC(=O)c1ccc(N(Cc2ccccc2Cl)S(C)(=O)=O)cc1 | -0.345
3 | CCOc1cc(C(=O)N2CCN(c3ccc(C(C)=O)cc3)CC2)cc(OCC)c1OCC | -0.202
4 | O=C(NCCCn1ccnc1)Nc1ccc(Cl)cc1Cl | -0.326
5 | CC(C)(C)NCc1cc2ccccc2[nH]c1=O | -0.0486
6 | Cn1sc(NC(=O)c2ccccc2)nc1=O | 0.0165
7 | Cc1n[nH]c(=S)c2nn(-c3cccc(Cl)c3)c(C)c12 | -0.0685
8 | Cc1cccc(NC(=O)Cn2nc(C(F)(F)F)cc2C2CC2)c1 | 0.623
9 | CCn1c(O)c(N=NC(=O)CNC(=O)c2ccco2)c2ccccc21 | -0.152
10 | CN(C(=O)CSc1nnc(-c2n[nH]c3ccccc23)o1)c1ccccc1 | -0.571
11 | COc1ccc(/C=N/n2c(SC)nnc(C(C)(C)C)c2=O)cc1OC | -0.221
12 | Cn1c(=O)n(C)c2cc(C(N)=O)ccc21 | 0.035
13 | CCOc1cccc(NC(=O)CC#N)c1 | -0.393
14 | CCN(CC)C(=O)c1sc(NC(=O)c2cc(-c3ccc(C)s3)nc3ccccc23)c(C(=O)OC)c1C | -0.353
15 | Cc1ccc(C2CC(c3ccccc3)=NN2C(=S)Nc2ccccc2)o1 (centres undefined) | -0.213
16 | CCN(CC)c1ccc2cc(-c3nc4ccccc4[nH]3)c(=O)oc2c1 | -2.63
17 | O=C(CSCc1ccccc1)Nc1ccc(Cl)cn1 | -0.435
18 | Cc1ccccc1CSc1nnc(-c2ccccn2)n1N | 0.509
19 | Cc1ccccc1-n1nc(C)c2cc(C(=O)NC3CC3)sc21 | -1.81
20 | CCc1cc(=O)oc2cc(OCC(N)=O)c(Cl)cc12 | 0.0423
21 | CCn1c(SCC(=O)Nc2oc(-c3ccccc3)c(-c3ccccc3)c2C#N)nnc1-c1ccncc1 | -0.814
22 | CCOC(=O)N1CCC(N2CC34C=CC(O3)C(C(=O)Nc3ccc(C(C)C)cc3)C4C2=O)CC1 (centres undefined) | -0.264
23 | N#Cc1ccc(OCCN2C(=O)NC3(CCSC3)C2=O)cc1 (centres undefined) | -0.566

Row | Structure (SMILES) | z-score
24 | NNC(=O)CCc1c[nH]c2ccccc12 | -0.11
25 | COc1ccc(N2CCN(S(=O)(=O)c3cccc(C(F)(F)F)c3)CC2)cc1 | -0.0298
26 | O=C(/C=C/c1ccccc1)NCCSc1ccc(Cl)cc1 | -0.183
27 | Fc1ccc(-c2cc(C(F)(F)F)nc(N3CCCCC3)n2)cc1 | -0.211
28 | COc1ccc(CC(NC(C)=O)C(=O)NC2CCN(C(=O)c3cnccn3)CC2)cc1 (centres undefined) | -0.00175
29 | Cc1cc(-c2nnc(SCC(=O)Nc3ccccc3C(F)(F)F)o2)c(C)n1-c1ccccc1 | -0.307
30 | CC(=O)c1ccc2c(c1)Cc1cc(C(C)=O)ccc1-2 | -0.184
31 | COC(=O)c1sc(N)c(C(=O)OC)c1CSc1nc2sc3c(c2c(=O)n1C)CCC3 | -0.0976
32 | CCn1c(CCNC(=O)c2ccc(C)cc2)nnc1SCc1ccc(Cl)c(Cl)c1 | -0.659
33 | CC(C)n1cc(/C=C2/NC(=O)N(c3cccc(Cl)c3)C2=O)c2ccccc21 | -0.205
34 | COc1ccc(C2Nc3ccccc3C(=O)N2Cc2ccco2)cc1COc1ccccc1F (centres undefined) | -0.629
35 | Cc1occc1C(=O)N1CCN(Cc2ccccc2)CC1 | -0.362
36 | Cc1ccc(N2C(=O)[C@@H]3[C@H](C2=O)[C@H]2C=CC=NN2[C@@H]3C(=O)Nc2ccc(Cl)cc2)cc1 | 0.257
37 | CCc1ccccc1N(CC(=O)O)S(C)(=O)=O | 0.424
38 | Cc1ccoc1C(=O)NCCNc1ccc(Cl)cc1[N+](=O)[O-] | -0.511
39 | COC(=O)c1ccc(N2CCN(CC(=O)c3ccc(-c4ccccc4)cc3)CC2)c([N+](=O)[O-])c1 | -0.117
40 | CCn1c(SCC(=O)Nc2ccc3c(c2)OCCO3)nc2c(c1=O)SC(C)C2 (centres undefined) | -1.51
41 | O=C(NCc1cccs1)c1cccc(Nc2nc3ccc(Br)cc3[nH]2)c1 | -0.408
42 | CC(=O)c1ccc(NC(=O)Nc2ccc([N+](=O)[O-])cc2)cc1 | -0.178
43 | CCOC(=O)c1nn(-c2ccc(C)cc2)cc1C(=O)c1ccccc1 | -0.509
44 | O=C(c1cccs1)N1CCN(CCc2ccccc2)CC1 | -0.113
45 | COc1ccccc1NC(=O)c1ccc(C)s1 | -0.701
46 | O=S(=O)(NC1CCCCCCC1)c1cccs1 | -0.409

Row | Structure (SMILES) | z-score
47 | CSc1nncn1/N=C/c1ccc2c(c1)OCO2 | 0.0246
48 | CCc1ccc(N(C(=O)c2snc(C(N)=O)c2N)C(C(=O)NCCC(C)C)c2c[nH]c3ccccc23)cc1 (centres undefined) | -0.259
49 | CCOC(=O)C1=C(C)N(CCO)C(=O)NC1c1cccc(O)c1 (centres undefined) | -0.0476
50 | COc1ccc(-c2nnc(SCC(=O)N3CCCc4ccccc43)o2)cc1OC | 0.39
51 | CCN(Cc1ccccc1)C(c1cccs1)c1nnnn1C1CCCCC1 (centres undefined) | 0.834
52 | Cc1cc(O)ccc1N/C=C(\C#N)c1nc2ccccc2o1 | -0.0117
53 | Cc1c(-c2nc(N)nc(Nc3ccccc3F)n2)oc2ccccc12 | 0.89
54 | CCOC(=O)C1=C(C)N(CC(C)C)C(=O)/C1=C\c1ccc(OCC(=O)Nc2ccccc2)cc1 | 0.0387
55 | Cc1nc(Nc2ccc(S(=O)(=O)N3CCCCC3C)cc2)c2nnn(Cc3ccccc3)c2n1 (centres undefined) | -0.315
56 | Cc1ccc(NC(=O)CN2CCC(NC(=O)C3CCCCC3)CC2)c(Br)c1 | 0.731
57 | O=C(c1ccco1)N1CCN(C(=O)C2CC(c3ccc(Cl)c(Cl)c3)=NO2)CC1 (centres undefined) | -0.694
58 | N/C(=N\OC(=O)COc1ccccc1Cl)c1ccccn1 | 1.57
59 | Cc1ccc(SCc2[nH]nc3c2C2(C(=O)Nc4ccc([N+](=O)[O-])cc42)C(C#N)=C(N)O3)cc1 (centres undefined) | -0.0673
60 | CCN(CC)S(=O)(=O)c1ccc(C(=O)NCC(c2cccs2)N2CCOCC2)cc1 (centres undefined) | -0.225
61 | COc1ccccc1NC(=O)CSc1nnc(-c2ccco2)n1Cc1ccco1 | -1.03
62 | C=CCn1c2ccccc2c2nnc(SCc3[nH]c(=O)[nH]c3C(=O)CCCCC(=O)OCC)nc21 | -0.696
63 | CC(C)CNC(=O)c1cccc(NC(=O)c2ccc(NC(=O)c3ccco3)cc2)c1 | -0.0461
64 | Oc1ccc(CN2CCCCC2)c2cccnc12 | 0.233
65 | CCN(CC)c1ccc(NC(=O)c2cc(Cl)ccc2OC)cc1 | -0.108
66 | N#CC(=C1CCCC1)c1nc(-c2ccccc2)cs1 | 0.00712
67 | COc1ccccc1CNc1cc(CSc2ccc(Cl)cc2)nc(C)n1 | 0.452
68 | CC1(C)CC(=O)c2sc(NC(=O)Cc3cccs3)nc2C1 | -0.0922
69 | CNC(=O)Nc1ccccc1C(=O)NCc1ccccc1 | -0.373

— PubChem BioAssay AID488969 (Vanderbilt High Throughput Screening Facility, 2010)
